Results on 25 compounds are retold here after article PMC4336329 (PLoS ONE, 2015).

Each structure is given as a SMILES string. About 14,000 (4.5%) of roughly 310,000 compounds showed an effect of 50% or more. Effects have a minus sign here. This is one part of the list.
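Also: peak tail current of the secondary pulse compared with the same well before compound.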

human ether-à-go-go-related gene (hERG) potassium channel, sequence (Q12809 whole entry, looked up): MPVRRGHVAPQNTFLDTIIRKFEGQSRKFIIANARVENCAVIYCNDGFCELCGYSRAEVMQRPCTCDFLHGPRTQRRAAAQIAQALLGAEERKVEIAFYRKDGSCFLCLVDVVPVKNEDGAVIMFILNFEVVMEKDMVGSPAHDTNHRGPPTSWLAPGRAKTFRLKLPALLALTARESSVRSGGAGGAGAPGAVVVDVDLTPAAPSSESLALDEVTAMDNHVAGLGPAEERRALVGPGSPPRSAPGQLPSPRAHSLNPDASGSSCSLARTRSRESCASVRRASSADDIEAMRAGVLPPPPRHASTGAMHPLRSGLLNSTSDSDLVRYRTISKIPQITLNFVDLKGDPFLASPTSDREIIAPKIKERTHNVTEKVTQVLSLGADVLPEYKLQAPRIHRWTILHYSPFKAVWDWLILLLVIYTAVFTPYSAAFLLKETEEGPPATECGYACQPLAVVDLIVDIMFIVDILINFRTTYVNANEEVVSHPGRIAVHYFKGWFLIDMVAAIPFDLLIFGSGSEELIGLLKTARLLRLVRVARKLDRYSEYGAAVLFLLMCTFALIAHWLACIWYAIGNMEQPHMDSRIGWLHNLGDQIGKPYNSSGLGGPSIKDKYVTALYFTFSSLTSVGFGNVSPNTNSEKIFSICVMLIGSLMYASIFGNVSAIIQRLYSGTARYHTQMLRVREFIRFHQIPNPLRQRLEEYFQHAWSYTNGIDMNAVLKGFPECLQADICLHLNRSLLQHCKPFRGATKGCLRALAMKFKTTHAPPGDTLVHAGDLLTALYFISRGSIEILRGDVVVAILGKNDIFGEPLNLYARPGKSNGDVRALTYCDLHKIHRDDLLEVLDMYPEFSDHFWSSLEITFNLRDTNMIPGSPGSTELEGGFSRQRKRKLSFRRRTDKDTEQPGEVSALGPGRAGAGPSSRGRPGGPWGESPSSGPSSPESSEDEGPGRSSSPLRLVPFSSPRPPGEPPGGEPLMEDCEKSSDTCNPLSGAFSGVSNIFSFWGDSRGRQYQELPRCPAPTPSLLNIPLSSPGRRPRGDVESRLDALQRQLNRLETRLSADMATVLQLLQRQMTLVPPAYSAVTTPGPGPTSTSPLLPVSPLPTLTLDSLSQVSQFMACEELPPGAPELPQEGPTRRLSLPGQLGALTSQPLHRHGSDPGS

This assay has as its target human ether-à-go-go-related gene (hERG) potassium channel (human, UniProt Q12809). Put plainly: primary screen, population patch clamp on CHO cells stably expressing hERG.
For the compound `Cc1cn(COC/C=C/c2ccccc2)c(=O)[nH]c1=O`, the “hERG current change (%, negative = inhibition) at 10uM” value is 4.2%.
As to `S=c1[nH]nc(-c2cccnc2)n1/N=C/c1ccccc1`, the “hERG current change (%, negative = inhibition) at 10uM” value amounted to 11.7%.
Regarding `COc1ccc(-n2c(SCC(=O)N3CCOCC3)nc(O)c(Cc3ccccc3)c2=O)cc1`, the “hERG current change (%, negative = inhibition) at 10uM” value was determined as 7.78%.
Consider `Cc1ccc(NC(=O)Nc2ccc3c(c2)nnn3C)cc1C`, for which the “hERG current change (%, negative = inhibition) at 10uM” value is reported as 27.4%.
In the case of `O=C(Nc1c(F)cc(F)cc1Br)c1cc(S(=O)(=O)N2CCN(c3ccccn3)CC2)ccc1F` it was -15.9%.
In the case of `O=C(CCN1N=C(c2ccccc2)CCC1=O)NCC1COc2ccccc2O1` (stereo not shown), the “hERG current change (%, negative = inhibition) at 10uM” value is -14%.
The same measure for `N#Cc1ccc(/C=N/NC(=O)c2ccccc2F)cc1`: 6.52%; for `Cc1nnn(-c2nonc2N)c1C(=O)N/N=C/c1ccccc1O`: 9.64%; for `CCC1CCCCN1C(=O)CSc1nc2c(c(=O)n1C)SC(C)C2` (stereo not shown): -22.8%.
The same measure for `O=C(Nc1ccc2c(c1)OCO2)N1CCCc2ccccc21`: 11.7%.
The same measure for `CC(=O)NCC(=O)OCC(=O)N1c2ccccc2Sc2ccccc21`: 16.4%; for `O=C(Nc1ccc(CN2CCOCC2)cc1)c1ccco1`: 5.32%; for `CC1=C(C(=O)OC(C)C)[C@@H](c2ccc(C)o2)NC(=O)N1`: 24.6%.
As for `CCOc1ccc(N(CC(=O)NC2CCCCC2)C(=O)CCC(=O)Nc2nccs2)cc1`, the “hERG current change (%, negative = inhibition) at 10uM” value is recorded as -11.4%.
For the compound `COc1ccc(OC)c(S(=O)(=O)N(C)CC(=O)N2CCN(c3cccc(Cl)c3)CC2)c1`, the “hERG current change (%, negative = inhibition) at 10uM” value is given as -39.5%.
The same measure for `Cc1cc(C(=O)NCC2COc3ccccc3O2)c2ccccc2n1` (stereo not shown): 10.3%; for `CCC(CC)C(=O)Nc1ccc(Cl)c(Cl)c1`: -11.7%.
`Cc1ccc(NC(NC(=O)c2cccs2)C(Cl)(Cl)Cl)cc1C` (stereo not shown): the “hERG current change (%, negative = inhibition) at 10uM” value is -4.07%.
For `CC(O)CNc1nc2ccccc2n1CC(=O)NCC(F)(F)F` (stereo not shown), the “hERG current change (%, negative = inhibition) at 10uM” value is on record as 13.9%.
Regarding `CCOc1ccccc1NC(=O)COC(=O)C1CCC1`, the “hERG current change (%, negative = inhibition) at 10uM” value is reported as -17%.
For the compound `COC(=O)c1[nH]c2c(c1C)C(=O)CC(c1cc(OC)c(OC)c(OC)c1)C2` (stereo not shown), the “hERG current change (%, negative = inhibition) at 10uM” value is recorded as -3.2%.
As to `Nc1c(Cl)cnn(-c2ccccc2)c1=O`, the “hERG current change (%, negative = inhibition) at 10uM” value turned out to be 3.05%.
In the case of `CC1=C(C(=O)OCc2ccccc2)C(c2cccc([N+](=O)[O-])c2)NC(=O)N1` (stereo not shown) it was 18.1%; in that of `O=C(Cn1nc(-c2ccccc2)c2ccccc2c1=O)Nc1ccc(F)cc1`, -2.75%; in that of `CNC(=O)CC1C(=O)N(Cc2ccccc2)C(=S)N1NC(=O)c1cccc(F)c1` (stereo not shown), 6.11%.
